PubChem BioAssay (NCATS)
The other results are listed elsewhere or left out. These are further read-outs of the screen, such as a control signal, another cell line or another target. No call is given for them. Compounds called inactive in the main read-out are mostly missing here. The note in brackets gives the kind of curve behind each potency; many fits are weak.

Experiment: Cell-based coincidence reporter assay to measure PMP22 gene transcription in S16 Pmp22-F2sN cells - Confirmatory screen (AID 1508646)
Conditions: S16 Schwann cells Pmp22-F2sN, dual luciferase, 24 h
Outline: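 S16 rat Schwann cells carrying FLuc-2A-NLuc reporter in Pmp22 3' UTR (500-1,000 cells/well) treated with pinned compounds for 24 h at 37C. Dual-luciferase reads: FLuc luminescence first, then NLuc after Stop&Glo.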

[1] = measured here: FLuc reporter channel
[2] = measured here: NLuc reporter channel
Tags tell the direction and shape of the fitted curve.

Structure (SMILES)	AC50 [1]	AC50 [2]
CCCNC(=O)c1ccc2c(c1)N=C(C)c1c(C)ccc(C)c1S2	2.43 µM [falling, full curve, poor fit]	2.17 µM [falling, full curve]
CCn1c(CN2CCCCC2)nc2cc(NC(=O)COc3ccccc3C(C)(C)C)ccc21	17.2 µM [falling, partial curve, poor fit]	19.3 µM [falling, partial curve]
CCOc1ccc(OCC)c(NC(=O)c2nnn(CC(=O)Nc3cc(Cl)ccc3OC)c2N)c1	13.7 µM [falling, full curve]	13.7 µM [falling, full curve]
O=C(CSc1nc2ccsc2c(=O)n1-c1ccc(Br)cc1)NCc1ccc(Cl)cc1	21.7 µM [falling, partial curve, poor fit]	19.3 µM [falling, partial curve]
COc1ccc(CC(=O)Nc2sc3c(c2C(=O)Nc2cccc(C)c2)CCCCC3)cc1	24.3 µM [falling, partial curve, poor fit]	21.7 µM [falling, partial curve]
CCOc1ccccc1NC(=O)c1cnn2c(C(F)F)cc(-c3ccccc3)nc12	8.62 µM [falling, full curve, poor fit]	21.7 µM [falling, partial curve]
Cc1cc(Br)cc2c1N(Cc1ccccc1OC(C)C)C(=O)C2=O	15.3 µM [falling, partial curve]	13.7 µM [falling, partial curve]
COc1ccc(CN2CCN(c3ncnc4sc5c(c34)CCCC5)CC2)cc1F	17.2 µM [falling, partial curve]	21.7 µM [falling, partial curve]
Cc1ccc(OCC(=O)Nc2ccc3[nH]c(=O)sc3c2)cc1	13.7 µM [falling, full curve, poor fit]	15.3 µM [falling, partial curve, poor fit]
Cc1ccc(NC(=O)N(Cc2cn(C)c3ccccc23)C2CCCCC2)cc1C	17.2 µM [falling, partial curve, poor fit]	15.3 µM [falling, partial curve]
O=C(CSc1c2c(nc3ccc(Cl)cc13)CCCC2)NCc1ccccc1Cl	21.7 µM [falling, partial curve]	24.3 µM [falling, partial curve, poor fit]
CCc1ccc(-c2cc(C)no2)cc1S(=O)(=O)NCc1ccc(OC)cc1	1.72 µM [falling, full curve]	9.68 µM [falling, partial curve]
O=C(NCCSc1c(-c2ccc(Br)cc2)[nH]c2ccccc12)c1ccc(S(=O)(=O)N2CCOCC2)cc1	8.62 µM [falling, single point]	7.69 µM [falling, partial curve, poor fit]
Cn1c(=O)oc2cc(S(=O)(=O)N3CCCC(C(=O)N4CCN(c5cccc(Cl)c5)CC4)C3)ccc21 (configuration not stated)	17.2 µM [falling, partial curve]	17.2 µM [falling, partial curve]
Cc1ccc(CNC(=O)c2nc(S(=O)(=O)Cc3ccc(C)cc3)ncc2Cl)cc1	15.3 µM [falling, partial curve]	19.3 µM [falling, partial curve]
CCc1ccc(C(=O)c2cn(CC(=O)Nc3ccc4c(c3)OCO4)c3ccc(CC)cc3c2=O)cc1	12.2 µM [falling, full curve]	12.2 µM [falling, partial curve]
CC1=Nc2cc(C(=O)NCc3ccccc3Cl)ccc2Sc2c(C)ccc(C)c21	2.17 µM [falling, full curve]	2.73 µM [falling, full curve]
O=S(=O)(c1ccc(Cl)cc1)c1nnn2c1nc(NC1CCCC1)c1sccc12	12.2 µM [falling, partial curve]	30.6 µM [falling, single point]
O=C(CCc1nnc2n(Cc3ccccc3Cl)c(=O)c3ccccc3n12)Nc1ccccc1	21.7 µM [falling, partial curve, poor fit]	19.3 µM [falling, partial curve, poor fit]
COc1ccccc1Nc1nn2c(=O)c3ccc(C(=O)NCCC4=CCCCC4)cc3nc2s1	6.11 µM [falling, full curve]	5.44 µM [falling, full curve]
COc1ccc(-c2nc3c(C#N)c[nH]n3c2NC2CCCC2)cc1	43.2 µM [falling, single point]	43.2 µM [falling, single point]

Structure (SMILES)	AC50 [1]	AC50 [2]
O=S(=O)(NCCc1csc2nc(-c3ccc(Cl)cc3)nn12)c1ccc(Oc2ccccc2)cc1	27.3 µM [falling, partial curve, poor fit]	30.6 µM [falling, single point]
COc1ccc2c(c1)-c1nc(NC(=O)c3cc(Cl)ccc3OC)sc1CC2	24.3 µM [falling, partial curve]	27.3 µM [falling, partial curve]
COc1ccc(OC)c(NC(=O)Cn2cnc3onc(-c4ccc(Cl)cc4)c3c2=O)c1	43.2 µM [falling, single point]	27.3 µM [falling, partial curve]
COc1nnc(-c2ccc(N3CCCCC3)c(NC(=O)c3ccccc3)c2)c2ccccc12	43.2 µM [falling, single point]	43.2 µM [falling, partial curve]
COc1ccc(-c2noc(CSc3nnc(-c4ccncc4)n3-c3ccc(C)c(C)c3)n2)cc1	19.3 µM [falling, partial curve]	15.3 µM [falling, partial curve, poor fit]
COc1ccc(-c2noc(CSc3nnc(-c4ccncc4)n3-c3ccc(C)cc3)n2)cc1	4.32 µM [falling, full curve]	3.06 µM [falling, full curve]
Cc1ccc(OCCSc2nc3ccc(NC(=O)c4ccc5c(c4)OCO5)cc3s2)cc1	19.3 µM [falling, partial curve, poor fit]	21.7 µM [falling, partial curve]
CCOC(=O)c1c(C)c(-c2ccccc2)n(CC(=O)Nc2cc(C)ccc2OC)c1C	24.3 µM [falling, partial curve, poor fit]	30.6 µM [falling, single point]
CCN(CC)CCn1c2c(c(SCC(=O)Nc3cccc(C(F)(F)F)c3)nc1=O)CCC2	21.7 µM [falling, partial curve, poor fit]	21.7 µM [falling, partial curve, poor fit]
Cc1ccc(Cn2c(C)c3cnn(CC(=O)NCc4ccccc4)c(=O)c3c2C)cc1	15.3 µM [falling, partial curve, poor fit]	19.3 µM [falling, partial curve]
CCC(Sc1nncn2c1cc1occc12)C(=O)Nc1ccc(C)c(Cl)c1 (configuration not stated)	15.3 µM [falling, partial curve]	27.3 µM [falling, partial curve]
COc1cc(C2CC(=O)Nc3cc4c(cc32)OCCO4)cc(Br)c1OC (configuration not stated)	19.3 µM [falling, partial curve, poor fit]	1.09 µM [falling, partial curve, poor fit]
COc1ccccc1NC(=O)Cn1c(=O)n(-c2cccc(Cl)c2)c(=O)c2sc3ccccc3c21	6.11 µM [falling, full curve]	6.85 µM [falling, full curve]
COc1cc(C2c3c(oc4ccccc4c3=O)C(=O)N2Cc2ccccc2Cl)ccc1O (configuration not stated)	12.2 µM [falling, partial curve]	4.85 µM [falling, full curve, poor fit]
COC(=O)c1ccc(CSc2nc3c([nH]c4ccccc43)c(=O)n2-c2cccc(Cl)c2)o1	6.11 µM [falling, full curve]	6.11 µM [falling, full curve]
COc1ccc(-c2c(C)nn3c(N4CCN(c5ccccc5)CC4)cc(C)nc23)cc1OC	21.7 µM [falling, partial curve]	30.6 µM [falling, single point]
Cc1ccc(C)c(NC(=O)Cn2c(=O)n(Cc3ccc4c(c3)OCO4)c(=O)c3ccc(C(=O)NC4CCCCC4)cc32)c1	17.2 µM [falling, partial curve]	19.3 µM [falling, partial curve]
O=C1CC(c2ccccc2)Cc2[nH]c(=O)c(-c3nc(-c4ccc(F)cc4)cs3)cc21 (configuration not stated)	15.3 µM [falling, partial curve]	21.7 µM [falling, partial curve, poor fit]
CCOC(=O)c1c(C)[nH]c(CCC(=O)NCCCN2CCN(c3cc(Cl)ccc3C)CC2)c1C	19.3 µM [falling, partial curve]	24.3 µM [falling, partial curve]
Cc1ccccc1NC(=O)Cn1c(=O)n(Cc2ccc3c(c2)OCO3)c(=O)c2ccc(C(=O)NC3CCCCC3)cc21	15.3 µM [falling, partial curve]	13.7 µM [falling, partial curve]
